# Test results as given in publication PMC4336329 (PLoS ONE, 2015).
# Hit rate of the full screen: of about 310,000 compounds, about 2,200 (0.71%) showed an effect of 50% or more. Effects have a minus sign here. The list shows a part of the results.
# Molecular target: human ether-à-go-go-related gene (hERG) potassium channel (human, UniProt Q12809)
# Assay: primary screen, population patch clamp on CHO cells stably expressing hERG
# Sequence of human ether-à-go-go-related gene (hERG) potassium channel (Q12809 whole entry, looked up): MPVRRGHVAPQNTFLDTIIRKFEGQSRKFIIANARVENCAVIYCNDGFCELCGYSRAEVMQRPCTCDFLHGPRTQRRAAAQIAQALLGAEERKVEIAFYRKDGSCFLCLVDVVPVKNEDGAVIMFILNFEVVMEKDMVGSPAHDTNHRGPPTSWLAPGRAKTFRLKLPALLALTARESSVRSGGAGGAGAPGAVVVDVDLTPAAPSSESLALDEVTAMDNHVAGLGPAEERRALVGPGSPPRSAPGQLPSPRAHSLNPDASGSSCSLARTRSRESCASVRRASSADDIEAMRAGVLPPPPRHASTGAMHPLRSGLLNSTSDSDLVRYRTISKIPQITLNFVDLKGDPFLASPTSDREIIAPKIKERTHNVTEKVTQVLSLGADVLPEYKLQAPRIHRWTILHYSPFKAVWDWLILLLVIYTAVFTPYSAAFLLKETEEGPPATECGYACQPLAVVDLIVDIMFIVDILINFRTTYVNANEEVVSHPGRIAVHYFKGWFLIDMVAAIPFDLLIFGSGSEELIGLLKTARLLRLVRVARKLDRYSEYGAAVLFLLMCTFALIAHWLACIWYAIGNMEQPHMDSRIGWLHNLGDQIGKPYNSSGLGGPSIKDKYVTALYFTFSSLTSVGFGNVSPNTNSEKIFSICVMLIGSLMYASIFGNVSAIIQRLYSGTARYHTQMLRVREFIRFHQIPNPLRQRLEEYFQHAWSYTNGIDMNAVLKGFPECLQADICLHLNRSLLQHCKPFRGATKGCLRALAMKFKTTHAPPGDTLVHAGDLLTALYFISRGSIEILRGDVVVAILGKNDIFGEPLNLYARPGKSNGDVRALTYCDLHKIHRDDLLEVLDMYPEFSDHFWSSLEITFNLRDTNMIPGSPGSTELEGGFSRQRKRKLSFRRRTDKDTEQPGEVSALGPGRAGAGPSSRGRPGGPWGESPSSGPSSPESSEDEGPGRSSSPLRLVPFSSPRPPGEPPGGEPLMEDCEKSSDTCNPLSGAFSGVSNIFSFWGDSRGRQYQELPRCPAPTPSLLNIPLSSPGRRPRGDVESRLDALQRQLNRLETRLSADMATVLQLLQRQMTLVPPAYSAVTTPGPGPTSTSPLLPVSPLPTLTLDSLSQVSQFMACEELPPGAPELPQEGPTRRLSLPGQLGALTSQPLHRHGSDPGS
row,Structure (SMILES),"hERG current change (%, negative = inhibition) at 1uM [%]"
1,COc1ccc(C)cc1NC(=O)C(OC(=O)CNC(=O)c1cc(C)cc(C)c1)c1ccccc1 (stereo not shown),15.6
2,COc1cccc(NC(=O)[C@H](Cc2c[nH]c3ccccc23)NC(=O)[C@@H]2Cc3ccccc3CN2)c1,-0.5
3,O=C(CCc1ccccc1)NCCCNC(=O)CCc1ccccc1,6.59
4,O=C(CSc1nnc(COc2cccc3cccnc23)o1)c1ccc(F)cc1,7.93
5,O=C(O)CC(NC(=O)c1sc2ccccc2c1Cl)c1ccc(OC2CCCC2)cc1 (stereo not shown),2.85
6,O=C(c1ccc(F)cc1)N1CCN(c2ncccn2)CC1,6.96
7,Cc1cccc(CN2C[C@]34C=C[C@@H](C[C@@H]3S2(=O)=O)O4)c1,10.3
8,CCCn1c(=S)[nH]c2cc(C(=O)NCC3CCCO3)ccc2c1=O (stereo not shown),10.9
9,C=CCN(c1nc(C)cc(OC)n1)S(=O)(=O)c1ccccc1,10.3
10,Cc1ccc(NC(=O)C2CC(=O)N/C(=N/N=C/c3ccco3)S2)cc1 (stereo not shown),5.35
11,CN(C)C1=NC[C@H](Cc2ccccc2)N1CC1CCCCCC1,4.4
12,O=C(CCc1ccc(O)cc1)c1c(O)cc(O)cc1O,12.6
13,O=C1NC(=O)C2(C(=O)N1)C(c1ccc(F)cc1)NC(=S)NC2c1ccc(F)cc1 (stereo not shown),7.99
14,CCOC(=O)c1ccc(NC(=S)NCCCN2CCCC2=O)cc1,2.42
15,O=C(CSc1nnc(CNC(=O)c2c(F)cccc2F)o1)NCC1CCCO1 (stereo not shown),3.41
16,CCc1ccc(C(=O)CSc2nc(N)cc(=O)[nH]2)cc1,14.7
17,O=C(CN1C(=O)COc2ccccc21)NCCC1=CCCCC1,-6.54
18,COc1ccc(C(=O)CC(Nc2ccc([N+](=O)[O-])cc2)c2ccc(Cl)cc2)cc1 (stereo not shown),-8.72
19,CCOc1ccc(NC(=O)CN(C)C(=O)CCC2CCCCC2)cc1OCC,-5.88
20,CC(NC(=S)NCCCN1CCOCC1)C12CC3CC(CC(C3)C1)C2 (stereo not shown),12.9
21,CC(C)(C)OC(=O)NCc1ccc(NC(=O)c2nc[nH]c2C(=O)N[C@@H](Cc2ccccc2)C(=O)OCc2ccccc2)cc1,11.6
22,COc1ccc(C=O)cc1COc1ccc(C)cc1[N+](=O)[O-],6.02

row,Structure (SMILES),"hERG current change (%, negative = inhibition) at 1uM [%]"
1,COc1ccc2[nH]c3nc(SC(C)C)nnc3c2c1,9.94
2,CCC(C)[C@H](N)c1nnc(SCC(=O)Nc2ccc(C)cc2C)o1 (stereo partly shown),-8.52
3,O=C1CC(c2ccc3c(c2)OCO3)C2=C(CCCC2=O)N1 (stereo not shown),4.8
4,CC(C)(C)C(=O)Nc1ccc(C(=O)N/N=C/C2CC3C=CC2C3)cc1 (stereo not shown),5.56
5,CCS(=O)(=O)c1ccc(C(=O)NC2CC2)c(Cl)c1Cl,8.31
6,CCOC(=O)c1ccc(OCC2NCCc3cc(OC)c(OC)cc32)cc1 (stereo not shown),6.45
7,Fc1ccc(NCc2cccnc2)cc1,4.71
8,COc1cccc(CNC(=O)C2CSC3(C)CCC(=O)N23)c1 (stereo not shown),9.43
9,O=C(CCNC(=O)c1ccccc1Cl)NCc1ccco1,-0.237
10,CCc1cccc(NS(=O)(=O)c2csc(C(N)=O)c2)c1,-3.63
11,CCCC(=O)NC(c1ccc(Cl)cc1)c1ccc2cccnc2c1O (stereo not shown),8.76
12,Cc1c(-c2ccccc2)oc2c(C(=O)OCC(=O)Nc3ccc(C(N)=O)cc3)cccc2c1=O,10.5
13,Cc1onc(-c2c(F)cccc2Cl)c1C(=O)NCc1cccs1,-3.54
14,O=C(Cc1ccc(S(=O)(=O)N2CCOCC2)s1)Nc1ccccc1N1CCCC1,1.94
15,COC(=O)c1sc(NC(=O)COc2c(C)cccc2C)nc1C,7.51
16,CCC(C)NC(=O)C1c2ccccc2C(=O)N1Cc1ccccc1OC (stereo not shown),-0.277
17,CCOC(=O)c1c(C)[nH]c(C)c1S(=O)(=O)N(C)CC(=O)NCc1cccc(C)c1,4.31
18,Cc1cc(C(=O)O)c2ccccc2n1,14.2
19,O=C(COC(=O)c1ccccc1NC(=O)c1ccco1)NCCC1=CCCCC1,6.95
20,COc1ccc(CCNC(=O)COC(=O)Cn2cnc3c2c(=O)n(C)c(=O)n3C)cc1,12.9
21,CC(=O)NCCC(=O)Nc1cc(S(=O)(=O)Nc2ccc(Cl)cc2)ccc1N1CCCC1,13.1
22,COc1ccc(C(=O)CSc2nc3nc(C)cc(C)n3n2)cc1OC,6.89

row,Structure (SMILES),"hERG current change (%, negative = inhibition) at 1uM [%]"
1,COc1ccc(C(=O)C2CCCN(Cc3ccsc3)C2)cc1OC (stereo not shown),-38.5
2,NC(=O)c1cc2cc(Cl)ccc2oc1=Nc1cccc(C(F)(F)F)c1,21
3,CCN1CCN(CC(=O)Nc2ccc3c(c2)OCCO3)C(=O)C1=O,20.5
4,O=C(/C=C/c1ccco1)NCCCN1CCN(CCCNC(=O)/C=C/c2ccco2)CC1,10.1
5,NC1=NC[C@H](Cc2ccc(O)cc2)N1CCCCC1CCCCC1,-1.97
6,CCOc1ccc(-c2nnn(CC(=O)N3CCN(c4ccc(F)cc4)CC3)n2)cc1OCC,3.71
7,CC(=O)Nc1ccc(C(=O)N(C)C(C(=O)Nc2ccc(C)cc2)c2ccccn2)cc1 (stereo not shown),5.83
8,Cc1noc(C)c1C(=O)OCC(=O)N(C)C1CCS(=O)(=O)C1 (stereo not shown),12.7
9,O=C(CNC(=S)NC(=O)C1CCCCC1)c1ccccc1,12.7
10,C=CCn1c(C(c2ccccc2)c2ccccc2)n[nH]c1=S,2.8
11,COc1cccc(Nc2nc3ccccc3n3nnnc23)c1,16.1
12,Cc1ccc(NC(=O)c2cccc(C(=O)Nc3ccc(C)cc3C(=O)O)c2)c(C(=O)O)c1,17.2
13,COc1cccc(NS(=O)(=O)c2c(C(=O)N3CCCCCC3)c(C)n(C)c2C)c1,9.88
14,COC(=O)[C@@H](NC(=O)Nc1ccccc1F)C(C)C,12
15,Cc1cccc(CN2C(=O)c3ccccc3S(=O)(=O)c3ccc(C(=O)NCCCN4CCCC4)cc32)c1,9.32
16,Cc1cc(C)n(CCc2nc(-c3ccc(F)cc3)cs2)n1,3.71
17,COc1ccc(S(C)(=O)=O)cc1S(C)(=O)=O,12.3
18,COc1ccccc1CNC(=O)CN1C(=O)COc2ccc(S(=O)(=O)N3CCCCC3)cc21,11.2
19,C#CC(C)(C)NC(=O)c1sccc1Oc1ccc(F)cc1[N+](=O)[O-],13.1
20,COC(=O)c1nnn(-c2cc(Cl)cc(Cl)c2)c1C(=O)OC,12.1
21,COc1ccc(CC(NC(C)=O)C(=O)NC2CCN(C(=O)NCc3ccccc3)CC2)cc1 (stereo not shown),-2.96
22,CC1CCCN(C(=O)COC(=O)c2cc([N+](=O)[O-])ccc2N2CCOCC2)C1 (stereo not shown),4.78

row,Structure (SMILES),"hERG current change (%, negative = inhibition) at 1uM [%]"
1,CCCCCCCCn1c(N2CCN(c3cccc(Cl)c3)CC2)nc2c1c(=O)[nH]c(=O)n2C,12.2
2,CCOC(=O)c1[nH]c(C)c(C(=O)NCc2ccc(Cl)cc2)c1C,-4.65
3,COCCOC(=O)C1=C(N)Oc2c(oc(CO)cc2=O)C1c1c(F)cccc1Cl (stereo not shown),1.67
4,CCCCn1c(=O)c(C(=O)Nc2cccc(C)c2)c(O)c2ccccc21,9.53
5,O=C(Cc1ccccc1[N+](=O)[O-])NCCc1ccc(F)cc1,11.3
6,Cc1cc(C(=O)CSc2cccc[n+]2[O-])c(C)n1-c1ccccc1,4.14
7,O=C1CSC(=Nc2ccc(Cl)cc2)N1,8.94
8,COC(CNC(=O)c1ccc2c(=O)n(Cc3ccc(Cl)cc3)c(=S)[nH]c2c1)OC,13.3
9,CNC(=O)/C(C#N)=C/c1cccc(Oc2ccccc2)c1,-3.22
10,CCOC(=O)N1CCN(Cc2c(NC(=O)c3ccco3)sc(C)c2C)CC1,1.13
11,C=C(C)COc1ccc(-c2[nH]ncc2Oc2ccccc2OCC)c(O)c1,-4.1
12,O=S(=O)(N/N=C/c1ccccc1OCc1ccc(Cl)cc1)c1ccccc1,-1.17
13,CN(C)C=O.COc1ccccc1NC(=O)C1=C(C)NC(=O)NC1c1ccccc1[N+](=O)[O-] (stereo not shown),12.2
14,COc1ccc(NC(=O)c2ccccc2C)cc1,11.7
15,N#CCC(=O)NCC1(c2ccccc2)CCCC1,7.44
16,Cc1nn(-c2ccccc2)c2nc(-c3ccccc3)cc(C(=O)N3CCOCC3)c12,-6.42
17,O=C(NC1CCN(Cc2ccccc2)CC1)c1cncc(Br)c1,-27.2
18,O=Cc1ccc(-c2cc(Cl)ccc2Cl)[nH]1,8.77
19,Cc1cc(C(=O)NCCC(C)C)c2ccccc2n1,9.39
20,COc1ccc(-c2nnc(SCc3ccccn3)n2C)cc1,5.7
21,Cc1ccc(-c2[nH]n3c(=O)c4c(nc3c2C)CCCC4)cc1,-4.72
22,COc1cc(C2CC(c3cccnc3)=NN2c2ccc(F)cc2)cc(OC)c1OC (stereo not shown),2.7
